# Test results: article PMC4336329 (PLoS ONE, 2015)
# In all, about 310,000 compounds went through this assay and about 2,200 (0.71%) showed an effect of 50% or more. The effect is printed as a negative number. This is one part of the list.
# Target: human ether-à-go-go-related gene (hERG) potassium channel (human, UniProt Q12809)
# Assay: primary screen, population patch clamp on CHO cells stably expressing hERG
# Sequence of human ether-à-go-go-related gene (hERG) potassium channel (Q12809 whole entry, looked up): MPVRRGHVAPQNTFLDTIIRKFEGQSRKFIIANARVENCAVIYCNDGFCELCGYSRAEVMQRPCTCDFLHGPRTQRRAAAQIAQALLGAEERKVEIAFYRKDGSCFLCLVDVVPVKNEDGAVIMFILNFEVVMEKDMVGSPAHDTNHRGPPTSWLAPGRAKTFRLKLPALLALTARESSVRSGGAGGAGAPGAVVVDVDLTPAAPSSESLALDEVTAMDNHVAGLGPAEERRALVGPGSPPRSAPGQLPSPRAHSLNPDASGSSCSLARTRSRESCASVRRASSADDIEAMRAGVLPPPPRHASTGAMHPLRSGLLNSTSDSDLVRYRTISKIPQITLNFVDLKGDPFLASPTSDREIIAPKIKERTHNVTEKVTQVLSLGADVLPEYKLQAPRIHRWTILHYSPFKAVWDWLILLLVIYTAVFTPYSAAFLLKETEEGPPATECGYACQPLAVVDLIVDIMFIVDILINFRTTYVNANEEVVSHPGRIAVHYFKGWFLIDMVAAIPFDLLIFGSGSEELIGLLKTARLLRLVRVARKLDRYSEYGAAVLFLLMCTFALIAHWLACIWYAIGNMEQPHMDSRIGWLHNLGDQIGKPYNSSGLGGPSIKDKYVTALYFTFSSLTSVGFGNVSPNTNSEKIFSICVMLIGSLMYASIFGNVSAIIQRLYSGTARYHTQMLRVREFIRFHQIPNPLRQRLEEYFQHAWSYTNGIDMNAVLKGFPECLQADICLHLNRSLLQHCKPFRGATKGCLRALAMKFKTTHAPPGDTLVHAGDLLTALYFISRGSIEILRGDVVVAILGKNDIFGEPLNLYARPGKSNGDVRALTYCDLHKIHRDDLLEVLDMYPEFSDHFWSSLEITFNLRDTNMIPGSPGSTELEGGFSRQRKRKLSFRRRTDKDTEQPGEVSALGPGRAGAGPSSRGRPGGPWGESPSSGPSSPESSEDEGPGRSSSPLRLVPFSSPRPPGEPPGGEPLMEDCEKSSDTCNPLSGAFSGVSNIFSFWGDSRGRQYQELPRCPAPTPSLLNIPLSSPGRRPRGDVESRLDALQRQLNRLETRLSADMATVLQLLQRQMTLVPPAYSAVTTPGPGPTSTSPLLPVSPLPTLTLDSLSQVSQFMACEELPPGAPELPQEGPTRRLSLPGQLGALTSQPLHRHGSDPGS
row,SMILES,"hERG current change (%, negative = inhibition) at 1uM [%]"
1,O=C1c2ccccc2C(=O)N1C(CO)C(O)c1ccc([N+](=O)[O-])cc1 (centres unmarked),3.43
2,O=C(NCC(c1ccco1)N1CCOCC1)c1cccc(Cl)c1 (centres unmarked),-0.645
3,CCCc1cc(=O)oc2cc(O[C@@H]3O[C@H](CO)[C@@H](O)[C@H](O)[C@H]3O)ccc12,14.4
4,CCOc1ccc(OCC)c(NC(=O)CN2CCN(c3ccc(C)cc3C)CC2)c1.Cl,6.37
5,C/C(=N\NC(=S)Nc1c(C)cccc1C)c1ccc(OC(F)F)cc1,6.89
6,Cc1ccc(NC(=O)CN(c2ccc3c(c2)OCO3)S(=O)(=O)c2c(C)n[nH]c2C)cc1,9.19
7,O=C(CCC(=O)N(CC(=O)NC1CCCC1)Cc1ccccc1Cl)Nc1nccs1,14.6
8,CC(C)(C)C(=O)NN=C1CCC(c2ccccc2)CC1 (centres unmarked),12.6
9,CN(CC(=O)Nc1ccc(F)cc1)CC(=O)Nc1ccc(Cl)c(S(=O)(=O)N2CCOCC2)c1,1.9
10,Oc1ccc(Br)cc1/C=N/N1CCN(Cc2cccc3ccccc23)CC1,11.5
11,Cc1ccc(-n2nc(C)c3c2OC(N)=C(C#N)C3c2ccncc2)cc1 (centres unmarked),8.82
12,Cc1ccc([N+](=O)[O-])c(OCCCN2CCCCCC2)c1.O=C(O)C(=O)O,-14.5
13,COc1cccc(/C=N/NC(=O)CCn2cnc3ccccc32)c1,9.74
14,COC(=O)C1C(O)=C(C(C)=N)C(=O)CC1(C)C (centres unmarked),15.6
15,COCC(=O)N/N=C\c1ccccc1OC/C=C/c1ccccc1,7.47
16,O=C(Nc1ccc2c(c1)OCO2)c1ccc(CN2CCOCC2)cc1,10.8
17,CCCn1c(NC(=O)CCNC(=O)c2ccccc2Cl)nc2ccccc21,4.07
18,CCSCc1nnc(SCC(=O)Nc2cccc(C(C)=O)c2)n1C,8.37
19,Cc1ccc(S(=O)(=O)Nc2nc3ccc(S(=O)(=O)N4CCCC4)cc3s2)cc1,15.3
20,CCOC(=O)c1cc(CC)sc1N1C(=O)CC(Sc2ccccc2C(=O)O)C1=O (centres unmarked),9.81
21,COc1ccccc1C(O)Cc1nc2ccccc2n1C (centres unmarked),13
22,Cl.O=S(=O)(NCCN1CCOCC1)c1cccs1,-23.3
23,O=C(CCSc1ccc(Cl)cc1)N1CCN(c2ccc(O)cc2)CC1,0.0976

row,SMILES,"hERG current change (%, negative = inhibition) at 1uM [%]"
1,CNCc1ccccc1Sc1cccc2ccccc12.O=C(O)/C=C\C(=O)O,7.08
2,COc1ccccc1NC(=O)c1ccc(C)c(S(=O)(=O)N2CCCCC2)c1,13.1
3,COc1ccc(N/C(C)=C/C(=S)Nc2ccccc2)cc1,12.2
4,CCCCn1c(=O)[nH]c(=O)c2c1nc(-c1ccccc1F)n2Cc1ccccc1OC,23.9
5,Cc1cccc(C)c1OCC(=O)NCC1CCCO1 (centres unmarked),4.76
6,CS(=O)(=O)N1CCN(C(=O)c2csc3ccccc23)CC1,11.6
7,CCOc1ccccc1Nc1cc(C)c2cccc(C)c2n1,15.8
8,CO[C@@]1(NC(=O)CSCC#N)C(=O)N2C(C(=O)[O-])=C(CSc3nnnn3C)CS[C@@H]21.[Na+],8.22
9,OCCC1CN(Cc2cccc3nccnc23)CCN1C1CCCC1 (centres unmarked),3.17
10,O=C(Nc1ccccc1F)c1ccccc1-c1ccc(C(F)(F)F)cc1,-1.07
11,CCn1c(CCNC(=O)c2cccs2)nnc1SCC(=O)Nc1nc(-c2ccccc2)cs1,-2.24
12,Nc1nc(N2CCN(c3ccc(F)cc3)CC2)n[nH]1,10.1
13,O=C(NC1CCCC1)C1CCC(=O)N1CCc1ccccc1 (centres unmarked),10.9
14,COc1ccc(N2CC(NC(=O)N(C)CCC#N)CC2=O)cc1 (centres unmarked),12.6
15,CCOc1ccc(N2C(=O)CC(N(CCc3ccc(OC)c(OC)c3)C(=O)/C=C/C(=O)O)C2=O)cc1 (centres unmarked),9.09
16,COc1ccccc1OCCCOc1ccc(/C=C2\SC(=O)NC2=O)cc1OC,20.1
17,COC(=O)c1sccc1NC(=S)N1CCN(c2ccccc2F)CC1,23.5
18,Cc1csc(NC(=O)c2nc3nccc(C)n3n2)n1,10.4
19,CC1=C(C)C(c2ccccc2)NC(=S)N1 (centres unmarked),10.7
20,CCOC(CNC(=O)c1ccc(CNC(=O)c2ccc(OC)c(OC)c2)cc1)OCC,8.72
21,O=C(CCC(=O)Nc1ccc(Br)cc1)N/N=C/c1cc([N+](=O)[O-])ccc1O,15
22,O=C(COC(=O)c1c(F)cccc1F)NCc1ccc2c(c1)OCO2,6.34
23,CS(=O)(=O)N1CCN(C(=O)C2c3ccccc3Oc3ccccc32)CC1,-4.04

row,SMILES,"hERG current change (%, negative = inhibition) at 1uM [%]"
1,O=C(CSc1cccc[n+]1[O-])Nc1ccc2c(c1)OCO2,8.95
2,COc1ccc(C(C)=O)cc1CC(=O)NCCCn1ccnc1,15.7
3,Cc1cccc(Oc2ccc(NC(=O)c3ccccc3C(=O)O)cc2)c1C,13.7
4,COc1cc(OC)cc(C(=O)Nc2ccc(N3CCOCC3)cc2N2CCOCC2)c1,-7.15
5,Cc1cc(NCc2ccncc2)ccc1Br.O=C(O)C(=O)O,12.6
6,O=C(CN1CCN(C(=O)c2ccccc2F)CC1)Nc1ccc(Br)cc1,-56.5
7,C#CC1CN(Cc2ccccc2)CC(C#C)N1C.Cl (centres unmarked),15.1
8,O=C(Nc1cccnc1)c1ccc(NS(=O)(=O)c2cccc([N+](=O)[O-])c2)cc1,13.9
9,CN(C)c1nc(C(=O)NN)nc(N(C)C)n1,-0.549
10,COc1ccccc1CNC(=O)c1ccccc1NC(=O)C1=C(C)OCCS1,10.7
11,COc1ccccc1CN1CC(C(=O)N2CCCCO2)CCC1=O (centres unmarked),-36.3
12,Cc1ccc(/C=C/C(=O)O)cc1S(=O)(=O)NCc1ccco1,7.73
13,CC(C)(C)NC(=O)Cn1nnc(-c2ccccc2Cl)n1,12.4
14,Cc1cccc(NC(=O)CN2CCN(C(=O)COc3cccc(Br)c3)CC2)c1C,-29.9
15,COc1ccc(NC(=O)CC2(CC(=O)O)CCCC2)cn1,18.1
16,COc1ccccc1[C@@H]1C(c2cccc(Cl)c2)=NN(c2ccc(Br)cc2)[C@H]1C(=O)N1CCOC1=O,16.5
17,CC(=O)c1cccc(S(=O)(=O)N2CCn3cccc3C2C)c1 (centres unmarked),8.58
18,O=C(CSc1cccs1)Nc1cccc2ccccc12,5.51
19,COCC(=O)N(c1ccccc1)C(C)C(=O)OC (centres unmarked),5.83
20,CC1(C)NC(=O)N(CC(O)COc2cc3ccccc3cc2C(=O)N2CCCCC2)C1=O (centres unmarked),5.5
21,COC(=O)c1ccc(CO/N=C/c2ccccc2OC)cc1,13.6
22,CC1CCCC(NC(=S)Nc2cccc(S(=O)(=O)N(C)C)c2)C1C (centres unmarked),20.1
23,Cc1c(Cl)cccc1NC(=S)N1CCC(C(N)=O)(N2CCCCC2)CC1,-1.12

row,SMILES,"hERG current change (%, negative = inhibition) at 1uM [%]"
1,CN(C1CCS(=O)(=O)C1)S(=O)(=O)c1ccc(N2CCCC2=O)cc1 (centres unmarked),10.8
2,Cc1ccc2nc(Nc3nc(CSc4nnnn4-c4ccccc4)cc(=O)[nH]3)nc(C)c2c1,15.2
3,COc1ccc(/C=C/c2nnc(NC(=O)C(C)(C)C)s2)cc1,-2.85
4,COc1ccc(Cc2nnnn2CC(=O)O)cc1,4.76
5,O=C(NCCCN1CCN(c2ccccc2F)CC1)C1CCC(=O)N1C1CCCCC1 (centres unmarked),1.21
6,CCC(=O)OCC(=O)Nc1ccc2c(c1)OCO2,4.12
7,Clc1ccccc1-c1nn2c(Cn3cnc4ccccc43)nnc2s1,4.73
8,O=C(/C=C/C=C/c1ccc2c(c1)OCO2)N1CCCCC1,9.12
9,COc1ccccc1CNC(=O)COc1ccc(S(=O)(=O)N2CCOCC2)cc1C,9.66
10,Cl.O=C(CCN1CCN(c2ccccc2F)CC1)c1ccc(Br)cc1,-40
11,COc1ccc(CC(=O)OCC(=O)c2c[nH]c3ccccc23)cc1,-6.52
12,O=C(CN1C(=O)NC2(CCCC2)C1=O)Nc1ccccc1C(F)(F)F,11.6
13,CCOCCCn1c(=NC(=O)c2ccc(OC)c(OC)c2)c(C#N)cc2c(=O)n3cccc(C)c3nc21,-11
14,O=C(NC1CC1)c1ccc(-c2ccccc2)cc1,4.86
15,CC1CC(C)CN(S(=O)(=O)c2ccc(NC(=O)CN3C(=O)NC(C)(c4ccccc4)C3=O)cc2)C1 (centres unmarked),10.9
16,COc1ccc(N2CC(NC(=O)N3CCN(c4ccccc4)CC3)CC2=O)cc1 (centres unmarked),5.4
17,CCOC(=O)c1c(NC(=O)C2CCCO2)sc2c1CCC2 (centres unmarked),7.12
18,O=C(O)c1ccccc1-c1ccccc1C(=O)NCc1ccccc1Cl,-18
19,COc1cc(NC(=O)CSc2nc(C)cs2)cc(OC)c1,8.25
20,COc1ccc(-c2cc(=O)c3c(OC)c(OC)c(OC)c(OC)c3o2)cc1OC,5.03
